The source of these data is the antibiotic and cytotoxicity screens of Wong et al. (2023).

The test system of one assay is HSkMC. In words: cytotoxicity call (relative viability < 0.9). The settings on record: 10 µM.
The test system of another assay is HepG2. The assay can be described thus: cytotoxicity call (relative viability < 0.9). The settings on record: 10 µM.
For the next assay, the system named is S. aureus RN4220. The assay can be described thus: growth inhibition call (relative growth <= 0.2). The settings on record: 50 µM.

The list shows a part of the results.

`C[C@H](CO)N1C[C@H](C)[C@H](CN(C)C(=O)NC2CCCCC2)OCCCC[C@H](C)Oc2ccc(NC(=O)Nc3ccc4c(c3)OCO4)cc2C1=O`: the cytotoxicity call with HSkMC and in the assay on HepG2 was “inactive” in each case. Further, in the assay with S. aureus RN4220, the growth inhibition call was “inactive”.

Regarding `COc1ccc(S(=O)(=O)N2C[C@@H](O)COC[C@@H]3O[C@@H](CC(=O)NCCCN4CCOCC4)CC[C@H]32)cc1`, the cytotoxicity call with HSkMC and with HepG2 was “inactive” in each case. Also, the growth inhibition call in the assay with S. aureus RN4220 was “inactive”.

In the case of `C[C@H](CO)N1C[C@H](C)[C@@H](CN(C)C(=O)Nc2ccc(C(F)(F)F)cc2)Oc2ccc(NC(=O)Nc3ccccc3)cc2C1=O`, the cytotoxicity call in the assay with HSkMC and with HepG2 was “inactive” each time. Further, in the assay on S. aureus RN4220, the growth inhibition call was “inactive”.

With `C[C@H](CO)N1C[C@H](C)[C@H](CN(C)S(=O)(=O)c2ccccc2)Oc2ncc(C#Cc3ccccc3F)cc2C1=O`, the cytotoxicity call with HSkMC and with HepG2 was “inactive” throughout. The growth inhibition call in the assay with S. aureus RN4220 is “inactive”.

For `C[C@H](CO)N1C[C@H](C)[C@H](CN(C)Cc2ccncc2)Oc2ncc(C#Cc3cccc(F)c3)cc2C1=O`, the cytotoxicity call with HSkMC and in the assay on HepG2 was “inactive” throughout. Also, the growth inhibition call in the assay on S. aureus RN4220 was “inactive”.

`Cc1ccc(S(=O)(=O)Nc2ccc3c(c2)C(=O)N([C@H](C)CO)C[C@H](C)[C@@H](CN(C)C(=O)Nc2cccc4ccccc24)O3)cc1`: the cytotoxicity call in the assay on HSkMC and with HepG2 was “inactive” in each case. Besides, in the assay on S. aureus RN4220, the growth inhibition call is “inactive”.

With `Cc1noc(C)c1S(=O)(=O)Nc1ccc2c(c1)C(=O)N([C@H](C)CO)C[C@@H](C)[C@@H](CN(C)C(=O)NC1CCCCC1)O2`, the cytotoxicity call in the assay on HSkMC and in the assay on HepG2 was “inactive” throughout. In the assay with S. aureus RN4220, the growth inhibition call was “inactive”.

With `CC(C)(C)[S@@](=O)N1Cc2cc(C(=O)NCCc3ccncc3)nc(-c3cccc(-c4cccc(C#N)c4)c3)c2[C@H]1CCO`, the cytotoxicity call in the assay on HSkMC and in the assay on HepG2 was “inactive” each time. In the assay on S. aureus RN4220, the growth inhibition call is “inactive”.

Turning to `C[C@@H]1CN([C@@H](C)CO)C(=O)c2cc(NS(C)(=O)=O)ccc2O[C@@H]1CN(C)C(=O)Nc1ccc(F)cc1`, the cytotoxicity call with HSkMC and in the assay with HepG2 was “inactive” each time. In the assay on S. aureus RN4220, the growth inhibition call is “inactive”.

As for `Cc1noc(C)c1NC(=O)N(C)C[C@H]1OCCCC[C@@H](C)Oc2ccc(NC(=O)C3CCCCC3)cc2C(=O)N([C@@H](C)CO)C[C@@H]1C`, the cytotoxicity call in the assay on HSkMC and in the assay on HepG2 was “inactive” throughout. Moreover, in the assay on S. aureus RN4220, the growth inhibition call was “inactive”.

As to `CN(C)CCNC(=O)COc1c2cccc1Cc1cccc(c1OCC(=O)NCCN(C)C)Cc1cccc(c1OCC(=O)NCCN(C)C)Cc1cccc(c1OCC(=O)NCCN(C)C)C2`, the cytotoxicity call in the assay with HSkMC and in the assay with HepG2 was “inactive” throughout. For the same compound, in the assay on S. aureus RN4220, the growth inhibition call was “inactive”.

On to `CC[C@@H](C)N[C@H]1CCS(=O)(=O)C1`, for which the cytotoxicity call with HSkMC and in the assay on HepG2 was “inactive” each time. In addition, the growth inhibition call in the assay with S. aureus RN4220 is “inactive”.

With `C[C@H]1CCCCO[C@H](CN(C)C(=O)Nc2ccc3c(c2)OCO3)[C@@H](C)CN([C@@H](C)CO)C(=O)c2cc(NS(=O)(=O)c3ccc(Cl)cc3)ccc2O1`, the cytotoxicity call in the assay on HSkMC is “inactive”. Moreover, in the assay with HepG2, the cytotoxicity call was “active”. Besides, the growth inhibition call in the assay with S. aureus RN4220 is “inactive”.

On to `C[C@H]1CN([C@@H](C)CO)C(=O)Cc2cc(NC(=O)Nc3ccccc3)ccc2O[C@H]1CN(C)Cc1ccc(Cl)c(Cl)c1`, for which the cytotoxicity call with HSkMC and in the assay with HepG2 was “active” in each case. In addition, in the assay on S. aureus RN4220, the growth inhibition call is “inactive”.

Regarding `C[C@H]1CN([C@@H](C)CO)C(=O)c2cc(NS(=O)(=O)c3cn(C)cn3)ccc2O[C@H]1CN(C)S(C)(=O)=O`, the cytotoxicity call in the assay with HSkMC and in the assay with HepG2 was “inactive” each time. Moreover, the growth inhibition call in the assay with S. aureus RN4220 is “inactive”.

Regarding `CCCNC(=O)N(C)C[C@H]1Oc2cc(C#Cc3cccc(F)c3)ccc2S(=O)(=O)N([C@@H](C)CO)C[C@H]1C`, the cytotoxicity call in the assay with HSkMC and with HepG2 was “inactive” throughout. In addition, the growth inhibition call in the assay with S. aureus RN4220 was “inactive”.

`COc1ccc(-c2cc(=O)c3c(OC)cc(OC)cc3o2)cc1`: the cytotoxicity call in the assay on HSkMC and with HepG2 was “inactive” throughout. The growth inhibition call in the assay with S. aureus RN4220 was “inactive”.

Regarding `C[C@@H]1CN([C@H](C)CO)C(=O)c2cc(NS(C)(=O)=O)ccc2O[C@H]1CN(C)S(=O)(=O)c1cn(C)cn1`, the cytotoxicity call with HSkMC and in the assay on HepG2 was “inactive” throughout. Besides, in the assay on S. aureus RN4220, the growth inhibition call was “inactive”.

For the compound `COc1ccc(NC(=O)N(C)C[C@@H]2Oc3ccc(NS(=O)(=O)c4c(C)noc4C)cc3C(=O)N([C@H](C)CO)C[C@H]2C)cc1`, the cytotoxicity call with HSkMC and with HepG2 was “inactive” each time. The growth inhibition call in the assay with S. aureus RN4220 is “inactive”.

For `C[C@H]1CCCCO[C@H](CN(C)C(=O)CCC(F)(F)F)[C@@H](C)CN([C@@H](C)CO)C(=O)c2cc(NC(=O)CCC(F)(F)F)ccc2O1`, the cytotoxicity call with HSkMC and with HepG2 was “inactive” each time. Also, the growth inhibition call with S. aureus RN4220 is “inactive”.

`CO[C@H]1CN(C)C(=O)c2cc(NC(=O)CC(F)(F)F)ccc2OC[C@@H](C)N(C(=O)C2CCOCC2)C[C@@H]1C`: the cytotoxicity call in the assay with HSkMC and with HepG2 was “inactive” each time. Moreover, the growth inhibition call in the assay with S. aureus RN4220 is “inactive”.

With `Cn1c(=O)c2c(nc(N3CCOCC3)n2CCCN)n(C)c1=O`, the cytotoxicity call in the assay with HSkMC and with HepG2 was “inactive” throughout. Besides, in the assay on S. aureus RN4220, the growth inhibition call is “inactive”.

With `C[C@@H]1CCCCO[C@@H](CN(C)C)[C@H](C)CN([C@@H](C)CO)C(=O)c2cc(NS(=O)(=O)c3cn(C)cn3)ccc2O1`, the cytotoxicity call in the assay on HSkMC and in the assay on HepG2 was “inactive” in each case. Besides, in the assay with S. aureus RN4220, the growth inhibition call is “inactive”.

For the compound `C[C@@H]1CCCCO[C@@H](CN(C)S(=O)(=O)c2cccs2)[C@H](C)CN([C@@H](C)CO)C(=O)c2cc(NC(=O)Nc3ccc(C(F)(F)F)cc3)ccc2O1`, the cytotoxicity call with HSkMC and in the assay with HepG2 was “inactive” each time. Besides, the growth inhibition call in the assay on S. aureus RN4220 was “inactive”.

For `C[C@@H]1CN([C@H](C)CO)C(=O)c2cc(C3=CCCC3)cnc2O[C@H]1CN(C)C(=O)c1ccc2c(c1)OCO2`, the cytotoxicity call with HSkMC and in the assay with HepG2 was “inactive” throughout. Also, the growth inhibition call in the assay on S. aureus RN4220 is “inactive”.

On to `CC(C)(C)S(=O)N1Cc2cc(C(=O)NCc3ccc4c(c3)OCO4)nc(-c3cccc(C#CCC4CCCC4)c3)c2[C@H]1CCO` (stereo partly specified), for which the cytotoxicity call in the assay on HSkMC and in the assay on HepG2 was “inactive” in each case. The growth inhibition call in the assay with S. aureus RN4220 was “inactive”.

For the compound `Cc1noc(C)c1S(=O)(=O)N(C)C[C@@H]1Oc2c(NC(=O)C3CCCCC3)cccc2C(=O)N([C@@H](C)CO)C[C@@H]1C`, the cytotoxicity call in the assay on HSkMC (human skeletal muscle cells) and in the assay on HepG2 was “inactive” in each case. Further, in the assay on S. aureus RN4220, the growth inhibition call is “inactive”.
